Some of the results follow. Antibody binding of pooled human sera (four to six donors per pool; dilution not stated) to peptides of the Trypanosoma cruzi antigen TSSA on microarrays. Quantile-normalised fluorescence in arbitrary units, mean of duplicate arrays; higher = more binding. No active / inactive call. The uninfected pools are read here as the healthy donors of the same country. The strongest signals lie near the top of the scale (about 60,000).
What was measured:
Experiment in all cases: antibody binding signal (normalised fluorescence) (arbitrary fluorescence units); higher = stronger serum antibody binding to peptide
[1] = tested on: pooled sera of chronic Chagas disease patients, Argentina
Protocol: (§1)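 Microarray of 15-residue peptides over residues 30-55 of Trypanosoma cruzi TSSAII, each with 1 to 10 substitutions at naturally variable positions, probed with one serum pool per country.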

[2] = tested on: pooled sera of chronic Chagas disease patients, Bolivia
Protocol: as §1

[3] = tested on: pooled sera of chronic Chagas disease patients, Brazil
Protocol: as §1

[4] = tested on: pooled sera of chronic Chagas disease patients, Colombia
Protocol: as §1

[5] = tested on: pooled sera of chronic Chagas disease patients, Mexico
Protocol: as §1

[6] = tested on: pooled sera of chronic Chagas disease patients, USA
Protocol: as §1

[7] = tested on: pooled sera of uninfected people, Argentina
Protocol: as §1

[8] = tested on: pooled sera of uninfected people, Bolivia
Protocol: as §1

[9] = tested on: pooled sera of uninfected people, Brazil
Protocol: as §1

[10] = tested on: pooled sera of uninfected people, Mexico
Protocol: as §1

[11] = tested on: pooled sera of uninfected people, USA
Protocol: as §1

Sequence	antibody binding signal [1]	antibody binding signal [2]	antibody binding signal [3]	antibody binding signal [4]	antibody binding signal [5]	antibody binding signal [6]	antibody binding signal [7]	antibody binding signal [8]	antibody binding signal [9]	antibody binding signal [10]	antibody binding signal [11]
GKEKKTATGEAPSQS	10300	7630	9950	4620	5400	15900	160	85.2	364	87.7	88.7
TPPSGTDNKTAAGGA	25800	36500	43900	586	7440	8000	2070	589	1950	337	653
KPAAGETPSPSGASS	306	236	3900	241	2900	1010	199	264	192	140	633
EKKAATGGAPSPPGA	2140	258	545	2710	1310	1350	432	1360	125	172	688
GKEKKPAAGEAPSQP	7940	5020	30800	3210	3410	11900	113	86.6	92.1	82.6	275
GKEKKAATGEAPSQS	16300	4030	19400	6120	7420	19900	244	112	87.6	87.1	121
GTDKKPAAGEAPSPP	383	792	19000	4950	561	15000	110	227	139	515	75.2
EKKAAAGGAPSQPGA	288	264	1870	4240	464	544	173	591	340	163	543
TEKKPATGETPSPSG	35600	30900	27200	361	262	21600	159	417	371	1690	2350
SGTDKKTAAGGAPSP	216	345	690	12300	2580	1290	234	136	176	472	153
GKEKKPATGGAPSPS	6600	732	1130	3520	3940	4000	221	340	96.1	86.6	289
EKKAATGEAPSPSGA	20400	20300	25300	286	394	23700	749	1240	160	264	1360
PSGTEKKPAAGGTPS	21800	3690	15000	8900	7640	7640	818	394	1120	348	747
EKKPAAGETPSQSGA	840	314	7650	454	284	1250	117	939	202	277	948
PPSGTENKAATGETP	43300	36700	40900	349	5200	18100	1650	437	343	268	306
SGTENKPATGEAPSP	46000	49500	48200	354	414	46800	1330	1320	383	324	147
KAAAGGAPSPPGASS	239	235	251	4500	370	777	197	144	103	90.9	163
KPATGGTPSQPGASS	563	268	2470	763	405	269	309	485	216	292	161
GTDNKAATGETPSPP	4090	6020	35400	227	239	13400	122	633	1120	165	1100
ISTPPSGKDNKPATG	15500	4360	25700	672	19700	12200	372	1720	172	163	221
TDKKTATGGTPSQPG	1040	715	1050	4770	661	1640	559	127	348	1080	135
GKDNKAAAGGAPSQS	374	205	277	1140	813	593	162	367	122	90.9	115
TISTPPSGTDNKAAA	40400	48400	54700	1690	11500	18900	3670	1280	1710	319	1410
SSTPPSGKENKAAAG	34800	4260	9270	424	6120	2410	3120	989	145	126	385
PSGTENKAATGEAPS	45600	42000	45900	713	1110	33200	1220	457	193	259	238
ENKTATGGTPSPPGA	365	2450	780	425	378	649	259	159	441	182	157
KDKKPAAGGAPSPPG	157	210	154	1400	151	441	123	82.3	113	67.5	104
